# This is one part of the list.
# Tested on: PF3D7_0420300 AP2 domain 1 (GST-tagged)
# Test: gcPBM binding intensity (ln(normalized median fluorescence intensity)); higher = stronger DNA binding
# Procedure, shortened: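 An Agilent 4 × 180k array carrying primer-extended double-stranded 36-bp intergenic genomic probes and negative controls received GST-tagged P. falciparum DNA-binding domains expressed in E. coli, about 25 μg on average, for 1 h. The binding buffer contained 1× PBS, 1% milk, 0.2 mg/ml BSA, 0.5% salmon testes DNA and 0.03% Triton X-100. Binding intensity is the top Masliner-normalised natural-log median intensity across replicate spots of either probe orientation, read after Alexa488 anti-GST antibody staining and a 488 nm scan.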
row,Sequence,gcPBM binding intensity (ln)
1,TACAGAATTGTATATAGTACATAAAACAATATATAT [XGTACX_site7275],9.37
2,GTATATGAATAATATTTTATGGTAATTTTTTTTTTT [XGTACX_negctrl_site512],9.22
3,TTTTTTTTTTCAAATACATGCATTTATGTATAATAC [TGCATGCA_site722],8.96
4,TAGGAAAAAAATACAGTGCAATTTTTATATAAATAA [GTGCAC_site9979],9.11
5,TTTTTTTTTTTTTTGTGTACTAATATTATAAATTTT [XGTACX_site4405],8.94
6,TACATATTTTATAACTGTACTTTTTTATTATCCAAT [XGTACX_site5396],9.39
7,TTTATATAAATCAAATGTACATATTCCAAATATATA [XGTACX_site8515],9.06
8,TTTTGTTATTTTTCAGTGCAATATGATAATAATATA,9.17
9,GAATCCTTAATATGAACACACAAATATATTACCCAT [CACACA_site186],9.6
10,AGAATTTTATTATATTGTACTTTTTATAAACCTTGT [XGTACX_site7495],9.19
11,TCTTTTTAACAAAAAAAAAAAAAAAAAAAAAAATTA [CACACA_negctrl_site1637],8.72
12,TGCTTATTTAGAATTGTGCACAGCGAATATTCTGTT,9.18
13,TACATTTATACTACTGCATTCAAAAAAAATAAAAAA [TGCATGCA_negctrl_site157],8.94
14,TATAAAAAAATATATATATATATTATATGTGTAGAA [TGCATGCA_negctrl_site391],9.3
15,ATTTATTTGAAGAATTGTACTAAATTATATAGCGGT [XGTACX_site4998],9.24
16,TATATCAAAATACATACACACATTTGTATTTACATT [CACACA_site5485],9.55
17,ATTTTAATTTGTTATACACACACAAAAAAAATTATA [CACACA_site9306],9.51
18,TTTTTTTTTAATCATGCACACTGTTAAAAGAATAAA [CACACA_site4817],8.84
19,AGAAAAGATAAAAATAGTACATATATATTTACTTAT [XGTACX_site7820],9.22
20,TATATTATTTTTAGAAGTACTTATTGTTATAATTCT [XGTACX_site1015],9.18
21,CTCCTTTCAAAAAAATGTACATGTTTACATTTCAAG [XGTACX_site7342],8.99
22,TTATATATAATATGACGTACAATTATACATTTTATG [XGTACX_site7598],9.15
23,ATAAATATTTATAACAGTACATATTTACTATCCTAA [XGTACX_site4497],9.14

row,Sequence,gcPBM binding intensity (ln)
1,ACGATTAAATCGATAATACACACTAAATGTAAAACA [CACACA_site119],9.36
2,TATACACATATTTTTACACACATATTTTTTCATATA [CACACA_site7244],9.87
3,TGAATATTCATGTGTGTGCGCATGTTGTTAGACCAT [GTGCAC_site9869],9.69
4,TAAATACATTTATGTACACACACATAGATGTATATT [CACACA_site5618],9.52
5,TGTTTTCTTGATTATTGTACTTTAATTAGTAATATG [XGTACX_site8674],9.44
6,AAAAATATTATAAGCACACATATATATATATATATA [CACACA_site2458],9.21
7,TATAATATGTTATATACACACATTATAAAATACACA [CACACA_site6742],9.5
8,TAATAATAAATAAAATGTACATATGAACAAATAAGT [XGTACX_site6710],9.73
9,AAAAAAAAAATTAATTGTACTAAAAAAATATTATAT [XGTACX_site8903],9.1
10,ACTGTCATTTATTGTAGTACGTCAATTTATTACATT [XGTACX_site2749],9.65
11,TGTTACAAAAAATAATGTACTTAATATATATATATA [XGTACX_site1016],9.09
12,TATCTTCATTTTTTTGGTACGCACGCAAATATGGCT [XGTACX_site3107],9.16
13,TTTAATTTTTATATAACACACATATTGGAATTATGT [CACACA_site734],9.26
14,TTTTTTACATACAGAAATATATAATATAAAATAAAT [GTGCAC_negctrl_site278],9.02
15,TTAAATGTGAAGTGAATACACACCTAATAAATATAA [CACACA_site3194],9.18
16,TTATGTATTACCTGCCGTACTTCTAAAATAATTAAA [XGTACX_site1716],9.32
17,ATATATTTACTTAATACACACAAAAAAAAAAAAAAA [CACACA_site3657],9.13
18,TATAAATTTTGTTTAGCACACACACCGACATACATA [CACACA_site9033],9.85
19,ATATATATATATATATGTACATACATACAATCATAT [XGTACX_site6410],9.32
20,ATGTTGTACAGACACACACACAAAAAAAAAATAAAA [CACACA_site7184],9.93
21,TATAATAGCTTCTTTACACACACCATTTTTTTTTTT [CACACA_site1456],9.87
22,CTTACATATTACATATGTACATATACACCTTATGTC [XGTACX_site4679],9.27
